Results as given in article PMC4176001.
Results are given in words; binding and its absence hold for the method and conditions named. In cells and extracts the contact can be indirect. Some binding calls cover weakened binding; strength is not graded here. Sequences can lack the tags named with a protein.

T1: Flag-tagged Cep120 (mouse) (UniProt Q7TSG1)
T1 sequence: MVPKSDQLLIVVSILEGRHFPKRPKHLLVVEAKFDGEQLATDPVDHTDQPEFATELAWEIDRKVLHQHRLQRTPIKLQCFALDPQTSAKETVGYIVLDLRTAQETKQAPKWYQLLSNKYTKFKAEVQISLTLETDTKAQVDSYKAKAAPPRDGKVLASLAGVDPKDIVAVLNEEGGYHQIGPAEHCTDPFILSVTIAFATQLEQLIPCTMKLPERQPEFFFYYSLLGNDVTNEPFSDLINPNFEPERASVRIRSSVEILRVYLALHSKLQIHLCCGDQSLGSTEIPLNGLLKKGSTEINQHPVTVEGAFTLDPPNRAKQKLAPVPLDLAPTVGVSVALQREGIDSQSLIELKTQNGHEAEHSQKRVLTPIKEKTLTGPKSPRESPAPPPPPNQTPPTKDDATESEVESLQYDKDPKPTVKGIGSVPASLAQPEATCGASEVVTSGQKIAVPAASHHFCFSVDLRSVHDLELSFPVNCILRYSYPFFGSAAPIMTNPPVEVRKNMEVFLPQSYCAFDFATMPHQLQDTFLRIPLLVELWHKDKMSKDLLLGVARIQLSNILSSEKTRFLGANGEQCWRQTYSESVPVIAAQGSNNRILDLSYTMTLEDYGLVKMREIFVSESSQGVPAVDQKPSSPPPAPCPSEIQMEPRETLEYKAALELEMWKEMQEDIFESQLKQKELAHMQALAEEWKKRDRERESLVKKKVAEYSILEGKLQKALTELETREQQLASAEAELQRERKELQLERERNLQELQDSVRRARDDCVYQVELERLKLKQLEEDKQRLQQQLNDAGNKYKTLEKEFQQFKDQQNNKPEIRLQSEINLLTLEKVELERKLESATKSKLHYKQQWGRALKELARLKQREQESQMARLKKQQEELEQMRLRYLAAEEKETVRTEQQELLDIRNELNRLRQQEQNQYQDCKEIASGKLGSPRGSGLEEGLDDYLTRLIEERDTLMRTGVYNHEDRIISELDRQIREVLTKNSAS

B1: Ta3 1-639 aa fragment (domain or fragment, UniProt E9PV87 1-639)
chain: MKNVEFSLERGQRLKMPARKLREIVSPNQGNKLAVVEDELPRVPPALAANKRLAVETRTSSNGTLCGSLDLTSARLYHQPLLESPPASKKSDFSKDAVVRQLPLNKTEENNAPKANDIFISQYTMGQKDALRTVLKQKAQSMPVFKAVKVHLFEDTSTEKNTVAQETETPPNRIDSATTVAAATAAAIATAAPLIKVQSDLEAKVNCVGELLTKLQETDKQLQRVTEHQASVQSKQEKVHCHDHDKQMNAFMEQHIRHLEKLQQQQIDIQTHFIDAALKASSLQLGMSTSRAVGKYSGKLGSPSVGSSVFSHNTFVSKRVPLSEDTDFDGQKSPLETPAPRRFAPVPVSRDGKITKRESPTEEKENMEMNSPKGNVRLLEQVLNSNECLTRKTESSDITSLTQPKMGWNLEKRDSTETLHSQIFPSSEERGTAQVPVPKYNDVVHDLGQKKQASDMLQIKQSPVTLRLSDHPHNPALLQTTNTRSVLKDAAKILRGVQNNKKVLEENLEAIVRAKDGAAMYSFINALATNREMSEKIRIRKQVDEWIKIISAEIQDELMRKDYEQKRFDPKNQRNKKALTMSRDIKANNQEKTVNRSVIPRSHYQKQTQEQFTSPPVRNLPASGPQKERSGLLKSATTL
B2: Ta3 471-E aa fragment (domain or fragment, UniProt E9PV87 471-1520)
chain: HPHNPALLQTTNTRSVLKDAAKILRGVQNNKKVLEENLEAIVRAKDGAAMYSFINALATNREMSEKIRIRKQVDEWIKIISAEIQDELMRKDYEQKRFDPKNQRNKKALTMSRDIKANNQEKTVNRSVIPRSHYQKQTQEQFTSPPVRNLPASGPQKERSGLLKSATTLQDEDYMLQIYGKPVYQGHRSTLKKGPYLRFSSPSPKAKPQRPRVIELVKGTKVKSAKTQTDFHAASRMKMDSKIQHPITALPHADQQYMVSPSREMPTVSGTLEGHLIPMAILLGQTQSNSDSMPPAGVTVNKPRPVTVTTSIPPASRKGNAGVKKPNVAIVEMKSEKKDPPQLSVQILPSVDIDSVSYSSTDGASSPPSPKEASLPPLHTWIQTPDFMKVDEEEVPLPGTNFDEVIDVIQEEEKRDEIPECSAPMLEFNRSVKVVPTKYNGPSFPPVVSAYHPTTDILDKVIERKETLENSLIQWVEQEIMSRIISGLFPLQQQARLDASVSVSEASEPSASDIVAGTSSGALQRMVDARVPVNSDMVSHFVNEALTETIAVMLADREAERQRAAATSVPGDLSGTETNLLARVCAPVATPQPTPPCSPSPVREHVRVKTPDSSPCESDPDAASSIKEIRVEKGSDMPAVMLVSTPTRTPVATPPPAAALTPTLSETSIDKLKLSSPELPKPWDSGDLPLDEENPNSLQELPHPRAVVMSVANEEPESVDFSAQPAPPEPAPSAPLPEGTKAPSLQRVPSSGSSTLENTLSTVTETETLDRHISEGEILFSCGQNLATKRPGDLFLMNINDSLSSTLQDALEMEDDPPSEGQVIRRPHKKRHEDAIVALLTKQQRELLVSQQEEDLDNSVGELSEGQRLVLKAAEDISAGPSGQMLPPTSPAEPSYQHADPRLVLQQSDMASGNICEDLCASHGPMSLRELELQPDSNLILPITHTTTAVSDGNLPEAAEDFSQYQQKQDSDIKQVEHKPIQRHLTSVRNKPDSTLSQHQGGPADLLLIAHVSPARMSVTLPSANLEDCSQSLSTSSMHGGTESSGTDTF
B3: Ta3 1-470 aa fragment (domain or fragment, UniProt E9PV87 1-470)
chain: MKNVEFSLERGQRLKMPARKLREIVSPNQGNKLAVVEDELPRVPPALAANKRLAVETRTSSNGTLCGSLDLTSARLYHQPLLESPPASKKSDFSKDAVVRQLPLNKTEENNAPKANDIFISQYTMGQKDALRTVLKQKAQSMPVFKAVKVHLFEDTSTEKNTVAQETETPPNRIDSATTVAAATAAAIATAAPLIKVQSDLEAKVNCVGELLTKLQETDKQLQRVTEHQASVQSKQEKVHCHDHDKQMNAFMEQHIRHLEKLQQQQIDIQTHFIDAALKASSLQLGMSTSRAVGKYSGKLGSPSVGSSVFSHNTFVSKRVPLSEDTDFDGQKSPLETPAPRRFAPVPVSRDGKITKRESPTEEKENMEMNSPKGNVRLLEQVLNSNECLTRKTESSDITSLTQPKMGWNLEKRDSTETLHSQIFPSSEERGTAQVPVPKYNDVVHDLGQKKQASDMLQIKQSPVTLRLSD
B4: Ta3 639-E aa fragment (domain or fragment, UniProt E9PV87 639-1520)
chain: LQDEDYMLQIYGKPVYQGHRSTLKKGPYLRFSSPSPKAKPQRPRVIELVKGTKVKSAKTQTDFHAASRMKMDSKIQHPITALPHADQQYMVSPSREMPTVSGTLEGHLIPMAILLGQTQSNSDSMPPAGVTVNKPRPVTVTTSIPPASRKGNAGVKKPNVAIVEMKSEKKDPPQLSVQILPSVDIDSVSYSSTDGASSPPSPKEASLPPLHTWIQTPDFMKVDEEEVPLPGTNFDEVIDVIQEEEKRDEIPECSAPMLEFNRSVKVVPTKYNGPSFPPVVSAYHPTTDILDKVIERKETLENSLIQWVEQEIMSRIISGLFPLQQQARLDASVSVSEASEPSASDIVAGTSSGALQRMVDARVPVNSDMVSHFVNEALTETIAVMLADREAERQRAAATSVPGDLSGTETNLLARVCAPVATPQPTPPCSPSPVREHVRVKTPDSSPCESDPDAASSIKEIRVEKGSDMPAVMLVSTPTRTPVATPPPAAALTPTLSETSIDKLKLSSPELPKPWDSGDLPLDEENPNSLQELPHPRAVVMSVANEEPESVDFSAQPAPPEPAPSAPLPEGTKAPSLQRVPSSGSSTLENTLSTVTETETLDRHISEGEILFSCGQNLATKRPGDLFLMNINDSLSSTLQDALEMEDDPPSEGQVIRRPHKKRHEDAIVALLTKQQRELLVSQQEEDLDNSVGELSEGQRLVLKAAEDISAGPSGQMLPPTSPAEPSYQHADPRLVLQQSDMASGNICEDLCASHGPMSLRELELQPDSNLILPITHTTTAVSDGNLPEAAEDFSQYQQKQDSDIKQVEHKPIQRHLTSVRNKPDSTLSQHQGGPADLLLIAHVSPARMSVTLPSANLEDCSQSLSTSSMHGGTESSGTDTF

Target: T1, Flag-tagged Cep120 (mouse)
Experiment: co-IP; FLAG-Cep120 coexpressed with Ta3 or Ta3 truncations in HEK293 cells; lysates immunoprecipitated and immunoblotted with the indicated antibodies

Molecule | binding
Talpid3 (Ta3), full length (from UniProt E9PV87 1-1520) | binds
B1 | binds
B2 | binds
B3 | no binding
B4 | no binding
